Assay results reported in the supplement of paper PMC6206098.
± gives the uncertainty stated by the source. Shown are siRNA guide strands that differ only in the seed, positions 2 to 7.

Experiments:
[1] = test system: M565; assay: cell viability relative to lipid-only control; higher = less toxic; conditions: concentration: 10 nM; 96 h; Mus musculus
Method: (§1)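 Arrayed screen of 4096 siRNA duplexes, each carrying one of all possible 6mer seeds at guide-strand positions 2-7 in a fixed neutral 19mer scaffold (constant flanks: U at position 1, then ACAUGUAAACCA, plus a 3' AA overhang). The passenger strand is 2'-O-methylated at positions 1-2 so only the guide strand loads into RISC. Duplexes were reverse-transfected at 10 nM with RNAiMAX in triplicate in 384-well plates; viability was read by CellTiter-Glo ATP content 96 h after transfection. Values are % viability normalised to lipid-only wells (HeyA8, H460, M565) or to siNT1 (3LL).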

[2] = test system: HeyA8; assay: as above; conditions: concentration: 10 nM; 96 h; Homo sapiens
Method: as §1

[3] = test system: H460; assay: as above; conditions: concentration: 10 nM; 96 h; Homo sapiens
Method: as §1

[4] = test system: 3LL; assay: cell viability relative to siNT1 control; HeyA8 human ovarian and H460 human lung cancer; M565 mouse liver and 3LL mouse lung cancer; siNT1 is a non-toxic control siRNA; higher = less toxic; conditions: concentration: 10 nM; 96 h; Mus musculus;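 also: Luminescence-based viability of cells reverse transfected in 384-well plates with lipid-complexed siRNAs built on a non-toxic 19mer backbone whose passenger strand carries 2′-O-methyl groups at positions 1 and 2, triplicates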
Method: as §1
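For cell viability relative to lipid-only control in this document: reverse lipid transfection in 384-well plates, in triplicate, of duplexes on a non-toxic 19mer backbone with passenger strand 2′-O-methylated at positions 1 and 2, luminescence viability read-out.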

Sequence	cell viability [1]	cell viability [2]	cell viability [3]	cell viability [4]
UAGAACCACAUGUAAACCAAA	42.8 ± 6.3%	82.1 ± 5.8%	58.8 ± 5.8%	17.6 ± 3.2%
UUUGGUUACAUGUAAACCAAA	90.2 ± 11%	103 ± 5.9%	88.8 ± 9.2%	106 ± 7.9%
UUGAGGUACAUGUAAACCAAA	9.22 ± 0.33%	41.8 ± 1%	38.1 ± 4.9%	16.8 ± 5.3%
UAAGGAAACAUGUAAACCAAA	69.4 ± 3.2%	93.2 ± 8.3%	66.6 ± 8.7%	83.3 ± 4.6%
UCGUCAGACAUGUAAACCAAA	66.7 ± 6.2%	75.7 ± 8.3%	63.6 ± 9.6%	77.8 ± 15%
UCGGCUGACAUGUAAACCAAA	46.1 ± 3%	29.5 ± 1.3%	53.5 ± 4.3%	95.5 ± 15%
UCCUUCGACAUGUAAACCAAA	83.8 ± 12%	69.6 ± 5.6%	90.6 ± 13%	92.7 ± 16%
UGAACGUACAUGUAAACCAAA	22.1 ± 3.5%	54.7 ± 1.4%	80.4 ± 21%	33.4 ± 7.9%
UGAAGAGACAUGUAAACCAAA	12.1 ± 1.7%	74.4 ± 4.2%	72.4 ± 11%	46.4 ± 11%
UUCCUUGACAUGUAAACCAAA	104 ± 9.1%	88.5 ± 14%	83.4 ± 6.7%	92.9 ± 16%
UUGCUUUACAUGUAAACCAAA	108 ± 26%	78.8 ± 9.1%	83.2 ± 4.4%	71.3 ± 5.6%
UGAGCUCACAUGUAAACCAAA	4.16 ± 0.44%	49.1 ± 1.5%	45.6 ± 4.2%	20.1 ± 5.1%
UGGCUCGACAUGUAAACCAAA	24.3 ± 3.4%	15.6 ± 2.4%	23.1 ± 3.4%	15.9 ± 2.6%
UUAUACUACAUGUAAACCAAA	61.9 ± 7.4%	48.6 ± 4.4%	33.5 ± 4%	36.8 ± 2.1%
UAAGCUGACAUGUAAACCAAA	56.3 ± 6.7%	94.9 ± 14%	68.6 ± 8.3%	84.1 ± 1.9%
UAUUCUGACAUGUAAACCAAA	88 ± 3.7%	95.2 ± 12%	64.2 ± 4.5%	99.1 ± 22%
UUUGCUUACAUGUAAACCAAA	103 ± 7.8%	80.6 ± 2.9%	79.1 ± 15%	88.3 ± 1.7%
UGAGACUACAUGUAAACCAAA	9.1 ± 2.9%	10.9 ± 1.2%	13.7 ± 1.8%	67.9 ± 12%
UAUCUAAACAUGUAAACCAAA	104 ± 8.4%	104 ± 13%	49.2 ± 2.9%	117 ± 15%
UUAAAGCACAUGUAAACCAAA	43.8 ± 5.3%	36.9 ± 4.2%	30.1 ± 6.3%	48 ± 5.5%
UGAAAGUACAUGUAAACCAAA	14 ± 1.7%	78.4 ± 7.2%	70.6 ± 8.6%	86.1 ± 17%
UCCUCCCACAUGUAAACCAAA	58.9 ± 3%	35.6 ± 2.1%	44.2 ± 1.4%	46.9 ± 11%

Sequence	cell viability [1]	cell viability [2]	cell viability [3]	cell viability [4]
UCGGGGCACAUGUAAACCAAA	19.7 ± 1.4%	2.48 ± 0.42%	13.4 ± 1.2%	14.8 ± 3.9%
UGAUUUGACAUGUAAACCAAA	58.2 ± 3.4%	49.3 ± 2.2%	63.3 ± 7.9%	60 ± 10%
UACUCGGACAUGUAAACCAAA	22.8 ± 6.8%	76.4 ± 7.1%	83.5 ± 18%	54.1 ± 5.4%
UCCUGUGACAUGUAAACCAAA	52.9 ± 4%	74 ± 6%	55.5 ± 7.4%	83.8 ± 15%
UUAAUUUACAUGUAAACCAAA	104 ± 9.6%	78.2 ± 5.4%	73.4 ± 18%	93.5 ± 12%
UCCGGUUACAUGUAAACCAAA	68.4 ± 17%	45.8 ± 3.9%	41.8 ± 5.2%	101 ± 27%
UGGGGCAACAUGUAAACCAAA	21.4 ± 2.5%	1.71 ± 0.29%	11.4 ± 0.82%	7.69 ± 0.59%
UUCGGUCACAUGUAAACCAAA	45.7 ± 0.61%	60.2 ± 6.4%	49 ± 5.3%	37.7 ± 5.2%
UGGAAUCACAUGUAAACCAAA	14.9 ± 3.3%	32.7 ± 2.9%	35.8 ± 4.8%	32.5 ± 4.7%
UGGAACUACAUGUAAACCAAA	24.1 ± 2.6%	59.9 ± 5.8%	48.9 ± 5.6%	39.8 ± 12%
UAACAGGACAUGUAAACCAAA	56.6 ± 3.6%	66.2 ± 5.2%	76.8 ± 16%	83.8 ± 12%
UUUUCCUACAUGUAAACCAAA	84.7 ± 5.2%	65.8 ± 2.5%	53.4 ± 12%	33.8 ± 10%
UUGUAUGACAUGUAAACCAAA	58.8 ± 13%	67.6 ± 3%	78.2 ± 6.1%	64.7 ± 6.6%
UCUACCCACAUGUAAACCAAA	23.6 ± 4.5%	67.3 ± 3.5%	55.7 ± 3.7%	93.5 ± 14%
UUUAUUAACAUGUAAACCAAA	87.4 ± 18%	95.5 ± 1.5%	76.1 ± 18%	92.4 ± 4.9%
UCAUUUUACAUGUAAACCAAA	56.9 ± 9.8%	29.1 ± 1.1%	32.4 ± 2%	77 ± 5.8%
UGCUCUAACAUGUAAACCAAA	67.3 ± 5%	79.4 ± 6.4%	85.2 ± 18%	82.4 ± 14%
UCAUGGCACAUGUAAACCAAA	4.66 ± 2%	14.1 ± 1.1%	22.2 ± 1.8%	20.2 ± 6.3%
UGAGUGAACAUGUAAACCAAA	14.3 ± 4.3%	81.6 ± 9.7%	67.6 ± 6.2%	70.8 ± 18%
UCAAAUUACAUGUAAACCAAA	60.9 ± 6.5%	90 ± 6.1%	67.1 ± 9%	100 ± 20%
UUAUGCUACAUGUAAACCAAA	13.3 ± 1.4%	12.7 ± 0.36%	19.5 ± 2%	19.2 ± 3.6%
UACGUGGACAUGUAAACCAAA	44.3 ± 7.7%	75.6 ± 2.4%	69.2 ± 8.4%	85.8 ± 5.1%
